The whole screen tested about 110,000 compounds, of which about 230 (0.21%) showed an effect of 50% or more. Some of the results follow.
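Also: 30 min substrate incubation versus DMSO and 10 µM JCP410 controls.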

DPAP1, sequence (Q8IIJ9 whole entry, looked up): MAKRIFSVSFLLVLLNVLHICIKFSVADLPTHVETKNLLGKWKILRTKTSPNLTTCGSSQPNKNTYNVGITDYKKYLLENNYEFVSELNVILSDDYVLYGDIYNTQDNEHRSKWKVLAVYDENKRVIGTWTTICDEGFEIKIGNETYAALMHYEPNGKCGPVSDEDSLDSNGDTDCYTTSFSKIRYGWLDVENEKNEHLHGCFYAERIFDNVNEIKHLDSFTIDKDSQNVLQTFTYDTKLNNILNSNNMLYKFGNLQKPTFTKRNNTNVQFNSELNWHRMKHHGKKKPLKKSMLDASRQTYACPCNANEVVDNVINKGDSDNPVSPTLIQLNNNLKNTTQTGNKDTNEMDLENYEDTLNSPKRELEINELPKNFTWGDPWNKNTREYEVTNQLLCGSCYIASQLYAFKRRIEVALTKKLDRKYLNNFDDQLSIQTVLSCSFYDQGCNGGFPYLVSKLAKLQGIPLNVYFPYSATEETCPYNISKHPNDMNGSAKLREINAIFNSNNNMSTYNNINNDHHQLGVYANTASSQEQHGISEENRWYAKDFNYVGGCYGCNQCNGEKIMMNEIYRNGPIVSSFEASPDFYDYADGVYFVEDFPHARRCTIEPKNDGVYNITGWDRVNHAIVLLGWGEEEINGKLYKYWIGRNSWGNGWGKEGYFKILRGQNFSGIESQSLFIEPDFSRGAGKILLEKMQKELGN

The assay concerns the target DPAP1 (Plasmodium falciparum, UniProt Q8IIJ9). Briefly: primary screen, percent inhibition; read by cleavage of a fluorogenic dipeptide substrate; higher = more effect of the substance. Set-up: species or system P. falciparum D10 trophozoite lysates; single well.
For `O=C(O)c1ccc(NC2=C(Cl)C(=O)N(c3ccccc3)C2=O)cc1`, the “% Inhibition @ 10 uM” value is -8.35%.
Next, `CC(C)Cn1cc(NC(=O)N(C)C2CCCCC2)c2ccccc2c1=O`: -6.33%.
`CSc1ccc(Cl)c(C(=O)Nc2sc(C)c(C)c2C(N)=O)c1`: the “% Inhibition @ 10 uM” value amounted to 2.99%.
For `COC(=O)c1sccc1NC(=O)c1cc(C2CC2)nc2c1c(C)nn2-c1ccc(C)cc1` the value was 3.37%; for `O=C(c1ccco1)N1CCN(C(=O)C(c2ccccc2)N2Cc3ccccc3C2=O)CC1` (centres unmarked), -4.38%; for `O=C(NCc1ccccn1)c1c(F)cccc1F`, 1.64%.
For `Cc1ccc(-n2nc3c(N4CCC(C(=O)NCCCOC(C)C)CC4)nnc(C)c3c2C)cc1` the value was 0.186%; for `Brc1ccc(OCc2nc(-c3ccc(-n4cccc4)cc3)no2)cc1`, -5.11%.
Next, `CC(Cc1ccccc1)[N+]1=NO/C(=N/C(=N/Cc2ccccc2)N(C)C)C1` (centres unmarked): -0.85%.
With `CCc1cc2c(=O)n(-c3ccccc3)c(SCC(N)=O)nc2s1`, the “% Inhibition @ 10 uM” value is -2.8%.
`O=C1C2CCCCN2C(=O)N1CCCCN1CCN(c2cccc(Br)c2)CC1` (centres unmarked): the “% Inhibition @ 10 uM” value amounted to 0.408%.
Consider `COc1ccc(-n2nnc(-c3nc(-c4ccccc4)no3)c2N)cc1Cl`, for which the “% Inhibition @ 10 uM” value is 2.71%.
`Cc1nc(-c2ccc([N+](=O)[O-])cc2)cs1`: the “% Inhibition @ 10 uM” value was 3%.
For `O=C1C2C3C=CC(C2C(=O)N1c1ccc(CCO)cc1)C1C(=O)N(c2ccc(CCO)cc2)C(=O)C31` (centres unmarked) the value was -0.687%; for `CCN(CC)C(=O)C1CCCN(C2CC(=O)N(c3ccccc3)C2=O)C1` (centres unmarked), 3.33%.
For `Cc1ccc(C(=O)N2CC3(C(C)C)CN(C(=O)c4ccc(C)cc4)CC(C(C)C)(C2)C3=O)cc1` the value was 3.94%; for `Cc1ccc(Cn2c(C(=O)O)c(CNC3CCCC(C)C3C)c3ccc(C)cc32)cc1` (centres unmarked), 9.74%.
Consider `COc1ccc(CNCc2cccc(Oc3ccccc3)c2)cc1`, for which the “% Inhibition @ 10 uM” value is 7.63%.
For `COc1ccccc1-c1cc(/N=C(/NCc2ccccc2)SC)[nH]n1` the value was 1.12%; for `O=C(C(Cc1ccccc1)N1C(=O)c2ccccc2C1=O)N1CCN(CCO)CC1` (centres unmarked), 0.408%; for `CC1CCC(C(C)C)C(OCC(O)CN2CCOCC2)C1` (centres unmarked), -7.32%.
With `Cc1nccn1Cc1cccc2ccccc12`, the “% Inhibition @ 10 uM” value is on record as -1.99%.
Next, `CCC(C)NC(=O)c1ccc(CS(=O)(=O)c2ccc(OC)cc2)o1` (centres unmarked): 2.14%.
Next, `COc1ccc(-c2ccc3c(N)c(C(=O)Nc4nc5ccccc5s4)sc3n2)cc1OC`: 4.97%.
For `CCN1CCC(N[C@H]2CCCCNC2=O)CC1` the value was -0.0953%; for `COc1ccc(CC(=O)Nc2ccc(C)c(F)c2)cc1`, -3.95%; for `CC(C)Sc1nc(N2CCOCC2)c2c(c1C#N)CC(C)(C)OC2`, 2.18%.
For `CN(C)c1nc2c(c(=O)n(C)c(=O)n2C)n1CC(O)COc1ccccc1` (centres unmarked), the “% Inhibition @ 10 uM” value is listed as -4.78%.
For `CCc1ccc(OCC(=O)NCCc2ccccc2)cc1` the value was -0.274%; for `O=S(=O)(c1ccccc1F)N1CCN(C(c2ccccc2)c2ccccc2)CC1`, -4.71%.
For `O=C1Nc2ccccc2C(=O)C1(F)Cc1ccccc1` (centres unmarked) the value was 6.29%.
Consider `CSc1ccc(C2CC(=O)N3CN(C)CSC3=C2C#N)cc1` (centres unmarked), for which the “% Inhibition @ 10 uM” value is recorded as 75%.
Next, `O=C(CN1C(=O)S/C(=C\c2ccccn2)C1=O)Nc1ccc(F)cc1`: -1.22%; `OCC1CCCN1Cc1ccc(Br)cc1` (centres unmarked): -5.65%.
Next, `C=CCOc1ccc(/C=C2\SC(=N)N(c3nonc3N)C2=O)cc1OCC`: 0.727%.
Next, `CCc1ccc2nc(N3CCC(C(=O)NCCC4=CCCCC4)CC3)sc2c1`: -0.406%; `COc1ccc(CCC(=O)Nc2cc(Cl)ccc2Cl)cc1`: -3.49%; `Cc1cccc(OCC(=O)Nc2cc(C)ccn2)c1`: 1.93%.
For `C(=C\c1nc2ccccc2n1Cc1ccccc1)/c1ccco1`, the “% Inhibition @ 10 uM” value is recorded as -2.28%.
Next, `Cc1cc(Cl)ccc1OCC(=O)NC1CCCCC1`: 3.68%; `CC(C)c1ccc(-n2nnc(-c3nc(-c4ccccc4)no3)c2N)cc1`: -5.65%.
Turning to `COc1ccccc1C1C(C#N)=C(N)Oc2cc(O)ccc21` (centres unmarked), the “% Inhibition @ 10 uM” value is reported as -1.37%.
For `COc1ccc(NC2=NC(=O)/C(=C/c3ccc(N4CCCC4)o3)S2)cc1`, the “% Inhibition @ 10 uM” value is given as 6.71%.
With `CCCCN(CCCC)S(=O)(=O)c1c[nH]c(C(=O)OC)c1`, the “% Inhibition @ 10 uM” value was -5.61%.
Regarding `COc1ccc(-c2cc(C(F)F)n3ncc(C(=O)Nc4cc(OC)c(OC)c(OC)c4)c3n2)cc1`, the “% Inhibition @ 10 uM” value is on record as 0.115%.
As for `CCOc1ccc(NC(=O)CN2C(=O)S/C(=C/c3cc(C)n(C(C)C)c3C)C2=O)cc1`, the “% Inhibition @ 10 uM” value is given as -6.74%.
Next, `Cc1nnc(N=Nc2c(O)n(Cc3ccccc3)c3ccccc23)n1N`: -3.41%.
Next, `O=C1NN=C2CC34CCC12CC3=NNC4=O`: -1.29%; `COc1ccc(N(C(=O)c2ccccc2)C2=CC3CCC(C2)N3C)cc1` (centres unmarked): -0.28%; `CC(=O)N/C(=C\c1ccc(Br)s1)C(=O)O`: 3.47%.
For `CC1(C)CC(NC(=O)c2cc(Cl)c(Cl)cc2C(=O)O)CC(C)(C)N1` the value was 3.66%; for `N#Cc1nc(/C=C/c2cccs2)oc1NCCc1ccccc1`, 3.27%.
In the case of `COc1ccc(CN2CCN(c3ccccn3)CC2)c(C)c1C`, the “% Inhibition @ 10 uM” value is reported as -1.77%.
For the molecule `CC(C)(C)c1ccc(C(=O)Nc2ccc(S(=O)(=O)N3CCCC3)cc2)cc1`, the “% Inhibition @ 10 uM” value stood at 1.84%.
For `COc1ccc(NC(=O)c2ccc(Br)cc2)c2cccnc12` the value was -4.26%.
With `C=CCc1ccc(OCCn2c(C(O)CC)nc3ccccc32)c(OC)c1` (centres unmarked), the “% Inhibition @ 10 uM” value is -3.08%.
Next, `COc1ccc2c(CNCc3cc(OC)c(OC)c(OC)c3)c(C(=O)O)[nH]c2c1`: -3.86%; `Cc1ccccc1CN(CC(=O)NCc1ccccc1)S(=O)(=O)c1ccc(Cl)cc1`: 2.4%; `O=C(CNS(=O)(=O)c1ccccc1)NCc1ccccc1Cl`: -1.22%.
Next, `N#CC1=C(N)NC(SCC(=O)c2ccc(Cl)cc2)=C(C#N)C12CCCCC2`: 31.7%; `Cc1ccccc1C(=O)Nc1cc2c(s1)CCCC2`: -7.34%.
For `CCOc1ccc(CCNC(=O)NCc2noc3ccccc23)cc1` the value was -1.39%; for `Cc1ccc(S(=O)(=O)N2CCOCC2)cc1C`, 1.25%; for `O=C(NCCn1ccc2ccccc21)C12CC3CC(CC(C3)C1)C2`, 0.8%.
`Cc1ccc(OCCCCCc2c(C)n[nH]c2C)cc1`: the “% Inhibition @ 10 uM” value is recorded as 1.35%.
For `O=C(Nc1ccc(NC(=O)c2ccco2)c(Cl)c1)c1ccccc1` the value was -5.85%; for `CS(=O)(=O)N(Cc1ccc(C(=O)N2CCN(c3ccccc3)CC2)cc1)c1ccccc1`, -2.28%.
Next, `COc1ccc(CCn2c(=O)c3cccnc3n(Cc3ccc(C)cc3C)c2=O)cc1OC`: -3.66%; `O=C1CCCc2c1[nH]c1ccc(F)cc21`: -4.61%.
Next, `CC1=C(C(=O)NCCN2CCC(Cc3ccccc3)CC2)C2(CCCCC2)OC1=O`: -3.7%.
As for `COCCCN1C(=O)S/C(=C/c2cc(OC)c(O)c(OC)c2)C1=O`, the “% Inhibition @ 10 uM” value is 0.709%.
For `CCCN(CCC)CCNC(=O)C(Cc1ccccc1)NS(=O)(=O)c1cccc2nsnc12` (centres unmarked) the value was 2%; for `Cc1ccccc1N(CC(=O)N1CCc2ccccc2C1)S(=O)(=O)c1ccccc1`, -2.03%; for `CCOC(=O)c1c(NC(=O)c2cnn3c(C(F)F)cc(-c4ccccc4)nc23)sc2c1CCC2`, -4.62%.
For `Cc1ccc(-n2ncnc2-c2cccnc2)cc1Cl` the value was 0.392%.
Next, `CC(C)CN(CC(C)C)c1ncnc2c1cnn2-c1ccc(Cl)cc1`: -0.438%; `Cc1cccc(C)c1OCC(=O)Nc1sc2c(c1C#N)CCCC2`: 12.2%.
Consider `COc1ccc(OC)c(NC(=O)c2cccc(C(=O)Nc3cc(OC)ccc3OC)c2)c1`, for which the “% Inhibition @ 10 uM” value is 3.93%.
Next, `O=C(O)c1ccccc1C(=O)Nc1cccc(-c2cn3ccsc3n2)c1`: 2.38%.
Next, `Cc1cccc(OCCCCCCN2CCOCC2)c1`: -2.28%; `COCc1cc(C)nc(Nc2ccc(C)c(C)c2)c1C#N`: -0.436%.
For `COc1ccccc1CN1COc2c(cc3c(C)c(C)c(=O)oc3c2C)C1` the value was 0.895%; for `COCCCNS(=O)(=O)c1ccc2[nH]c(O)nc2c1`, 5.62%; for `Cn1nc(C(=O)NCc2ccco2)c2c1-c1ccccc1S(=O)(=O)C2`, -3.53%.
With `COC(=O)c1cccc(NC(=O)Cc2ccccc2)c1`, the “% Inhibition @ 10 uM” value was -1.82%.
Next, `COc1ccc(S(=O)(=O)N(CC(=O)NCC2CCCO2)c2ccc(C)cc2)cc1` (centres unmarked): -2.28%; `Cc1ccc(/N=C/c2c(C)nn(-c3ccc(F)cc3)c2O)c(C)c1`: -2.16%; `Cn1c(=O)[nH]c(=O)c2c1nc(N1CCc3ccccc3C1)n2CCSc1nc2ccccc2s1`: -0.946%.
Next, `COCCNC(=O)CCNS(=O)(=O)c1cc(Br)cnc1N`: -4.69%.
On to `CN(C)c1ccc(C2CC(c3ccc(Cl)cc3)=NN2S(C)(=O)=O)cc1` (centres unmarked), for which the “% Inhibition @ 10 uM” value is listed as 6.24%.
For `Cc1nn(-c2ccccc2)c2nc3ccc(Cl)cc3cc12` the value was 1.52%; for `O=C(COCc1cc(-c2cccs2)on1)NCCc1cccs1`, -1.58%; for `Cc1ccc(C)c(Cn2cnc3c(oc4ccccc43)c2=O)c1`, 2.19%.
For `CSc1ccc(Cl)c(C(=O)Nc2cccnc2)c1` the value was -0.996%; for `Cc1cc(C)nc(SCc2ccc(F)cc2)n1`, -1.96%.
Next, `Cc1ccc2c(cnn2C(=O)CCCC(=O)NC2CCCC2)c1`: 0.596%.
With `O=C(Nc1ccc2nc(O)nc(-c3ccccc3)c2c1)c1ccccc1`, the “% Inhibition @ 10 uM” value is listed as -3.92%.
Next, `COCCCNC(=O)C1CCC(CNS(=O)(=O)c2ccccc2)CC1` (centres unmarked): -2.72%; `COc1ccc2[nH]c(SCC(O)C(C)(C)C)nc2c1` (centres unmarked): -4.39%.
Next, `CCN(CC)CCOc1c(Br)ccc2c1sc1nc3n(c(=O)c12)CCC3`: 4.54%.
For `COc1ccc(NC(=O)Cc2ccccc2F)cc1` the value was -2.09%.

(Values after article PMC6919601, “Identification of Plasmodium dipeptidyl aminopeptidase allosteric inhibitors by high throughput screening” (PLoS ONE, 2019).)
